Consider 12 sequences from the supplement of paper PMC12230231.

± gives the standard deviation of the averaged measurements. Restriction of a single-cycle SIVsab GFP reporter by TRIM5α v1-loop variants in CRFK cells. Human variants: read share among cells still uninfected after two challenges over input, higher = gained restriction. Rhesus variants: share among infected cells over input, higher = lost restriction. Reporter dose not given per row. No active / inactive call per row; the paper calls a change when both replicates lie above its controls (mean + 2 SD of stop or wild-type variants, or the top frameshift score). Residues outside the varied loop are taken from Swiss-Prot. The paper reads the human single-substitution scores as noise; they and the rhesus combinations repeat poorly (rank correlation 0.3 to 0.4), indel scores repeat only for the top variants, rhesus substitutions well (0.9).

The subject of the first data set is SIVsab (simian immunodeficiency virus of sabaeus monkeys), single-cycle GFP reporter, in CRFK cells. In words: enrichment among uninfected cells over input (fold); higher = stronger restriction. Conditions: library: human / rhesus combinations. Here is the method:
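Pools of CRFK cells expressing variants of the TRIM5α v1 loop were challenged with the single-cycle reporter, sorted by GFP and sequenced; mean of two replicates.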
For “MASGILVNVKEEVTCPICLELLTQPLSLDCGHSFCQACLTANHKKSMLDKGESSCPVCRISYQPENIRPNRHVANIVEKLREVKLSPEGQKVDHCARHGEKLLLFCQEDGKVICWLCERSQEHRGHHTFLTEEVAREYQVKLQAALEMLRQKQQEAEELEADIREEKASWKTQIQYDKTNVLADFEQLRDILDWEESNELQNLEKEEEDILKSLTNSETEMVQQTQSLRELISDLEHRLQGSVMELLQGVDGVIKRTENVTLKKPETFPKNQRRVFRAPDLKGMLEVFRELTDVRRYWVDVTVAPNNISCAVISEDKRQVSSPKPQIIYGARGTRYPSFTNFNYCTGILGSQSITSGKHYWEVDVSKKTAWILGVCAGFQPDAMCNIEKNENYQPKYGYWVIGLEEGVKCSAFQDSSFHTPSVPFIVPLSVIICPDRVGVFLDYEACTVSFFNITNHGFLIYKFSHCSFSQPVFPYLNPRKCGVPMTLCSPSS [human TRIM5α, 330-340 = GARGTRYPSFT]”, the enrichment came to 0.368 ± 0.51.
On the same count and under the same terms, the same measure for “MASGILVNVKEEVTCPICLELLTQPLSLDCGHSFCQACLTANHKKSMLDKGESSCPVCRISYQPENIRPNRHVANIVEKLREVKLSPEGQKVDHCARHGEKLLLFCQEDGKVICWLCERSQEHRGHHTFLTEEVAREYQVKLQAALEMLRQKQQEAEELEADIREEKASWKTQIQYDKTNVLADFEQLRDILDWEESNELQNLEKEEEDILKSLTNSETEMVQQTQSLRELISDLEHRLQGSVMELLQGVDGVIKRTENVTLKKPETFPKNQRRVFRAPDLKGMLEVFRELTDVRRYWVDVTVAPNNISCAVISEDKRQVSSPKPQIIYGARGTRYPSLVNFNYCTGILGSQSITSGKHYWEVDVSKKTAWILGVCAGFQPDAMCNIEKNENYQPKYGYWVIGLEEGVKCSAFQDSSFHTPSVPFIVPLSVIICPDRVGVFLDYEACTVSFFNITNHGFLIYKFSHCSFSQPVFPYLNPRKCGVPMTLCSPSS [human TRIM5α, 330-340 = GARGTRYPSLV]”: 0.000738 ± 7.1e-05.

The data set is the same for the next values; noted with them: library: insertions and deletions.
As to “MASGILVNVKEEVTCPICLELLTQPLSLDCGHSFCQACLTANHKKSMLDKGESSCPVCRISYQPENIRPNRHVANIVEKLREVKLSPEGQKVDHCARHGEKLLLFCQEDGKVICWLCERSQEHRGHHTFLTEEVAREYQVKLQAALEMLRQKQQEAEELEADIREEKASWKTQIQYDKTNVLADFEQLRDILDWEESNELQNLEKEEEDILKSLTNSETEMVQQTQSLRELISDLEHRLQGSVMELLQGVDGVIKRTENVTLKKPETFPKNQRRVFRAPDLKGMLEVFRELTDVRRYWVDVTVAPNNISCAVISEDKRQVSSPKPQIIYGARGTRYCTGILGSQSITSGKHYWEVDVSKKTAWILGVCAGFQPDAMCNIEKNENYQPKYGYWVIGLEEGVKCSAFQDSSFHTPSVPFIVPLSVIICPDRVGVFLDYEACTVSFFNITNHGFLIYKFSHCSFSQPVFPYLNPRKCGVPMTLCSPSS [human TRIM5α, 8-codon deletion at 336]”, the enrichment was 0.874 ± 0.6.
Same read-out and setting: the same measure for “MASGILVNVKEEVTCPICLELLTQPLSLDCGHSFCQACLTANHKKSMLDKGESSCPVCRISYQPENIRPNRHVANIVEKLREVKLSPEGQKVDHCARHGEKLLLFCQEDGKVICWLCERSQEHRGHHTFLTEEVAREYQVKLQAALEMLRQKQQEAEELEADIREEKASWKTQIQYDKTNVLADFEQLRDILDWEESNELQNLEKEEEDILKSLTNSETEMVQQTQSLRELISDLEHRLQGSVMELLQGVDGVIKRTENVTLKKPETFPKNQRRVFRAPDLKGMLEVFRELTDVRRYWVDVTVAPNNISCAVISEDKRQVSSPKPQIIYGARGTRYCTGILGSQSITSGKHYWEVDVSKKTAWILGVCAGFQPDAMCNIEKNENYQPKYGYWVIGLEEGVKCSAFQDSSFHTPSVPFIVPLSVIICPDRVGVFLDYEACTVSFFNITNHGFLIYKFSHCSFSQPVFPYLNPRKCGVPMTLCSPSS [human TRIM5α, 8-codon deletion at 337]”: 0.405 ± 0.087.
The same measure, in the same setting: to “MASGILVNVKEEVTCPICLELLTQPLSLDCGHSFCQACLTANHKKSMLDKGESSCPVCRISYQPENIRPNRHVANIVEKLREVKLSPEGQKVDHCARHGEKLLLFCQEDGKVICWLCERSQEHRGHHTFLTEEVAREYQVKLQAALEMLRQKQQEAEELEADIREEKASWKTQIQYDKTNVLADFEQLRDILDWEESNELQNLEKEEEDILKSLTNSETEMVQQTQSLRELISDLEHRLQGSVMELLQGVDGVIKRTENVTLKKPETFPKNQRRVFRAPDLKGMLEVFRELTDVRRYWVDVTVAPNNISCAVISEDKRQVSSPKPQIIYGARGTRYFNYCTGILGSQSITSGKHYWEVDVSKKTAWILGVCAGFQPDAMCNIEKNENYQPKYGYWVIGLEEGVKCSAFQDSSFHTPSVPFIVPLSVIICPDRVGVFLDYEACTVSFFNITNHGFLIYKFSHCSFSQPVFPYLNPRKCGVPMTLCSPSS [human TRIM5α, 5-codon deletion at 337]” belongs 0.899 ± 0.59.
“MASGILVNVKEEVTCPICLELLTQPLSLDCGHSFCQACLTANHKKSMLDKGESSCPVCRISYQPENIRPNRHVANIVEKLREVKLSPEGQKVDHCARHGEKLLLFCQEDGKVICWLCERSQEHRGHHTFLTEEVAREYQVKLQAALEMLRQKQQEAEELEADIREEKASWKTQIQYDKTNVLADFEQLRDILDWEESNELQNLEKEEEDILKSLTNSETEMVQQTQSLRELISDLEHRLQGSVMELLQGVDGVIKRTENVTLKKPETFPKNQRRVFRAPDLKGMLEVFRELTDVRRYWVDVTVAPNNISCAVISEDKRQVSSPKPQIIYGARGTRYFVNFNYCTGILGSQSITSGKHYWEVDVSKKTAWILGVCAGFQPDAMCNIEKNENYQPKYGYWVIGLEEGVKCSAFQDSSFHTPSVPFIVPLSVIICPDRVGVFLDYEACTVSFFNITNHGFLIYKFSHCSFSQPVFPYLNPRKCGVPMTLCSPSS [human TRIM5α, 2-codon deletion at 337]” returned an enrichment of 0.525 ± 0.44.
“MASGILVNVKEEVTCPICLELLTQPLSLDCGHSFCQACLTANHKKSMLDKGESSCPVCRISYQPENIRPNRHVANIVEKLREVKLSPEGQKVDHCARHGEKLLLFCQEDGKVICWLCERSQEHRGHHTFLTEEVAREYQVKLQAALEMLRQKQQEAEELEADIREEKASWKTQIQYDKTNVLADFEQLRDILDWEESNELQNLEKEEEDILKSLTNSETEMVQQTQSLRELISDLEHRLQGSVMELLQGVDGVIKRTENVTLKKPETFPKNQRRVFRAPDLKGMLEVFRELTDVRRYWVDVTVAPNNISCAVISEDKRQVSSPKPQIIYGARGTRYGARGTRYQTFVNFNYCTGILGSQSITSGKHYWEVDVSKKTAWILGVCAGFQPDAMCNIEKNENYQPKYGYWVIGLEEGVKCSAFQDSSFHTPSVPFIVPLSVIICPDRVGVFLDYEACTVSFFNITNHGFLIYKFSHCSFSQPVFPYLNPRKCGVPMTLCSPSS [human TRIM5α, 7-codon duplication at 329]” had an enrichment of 0.225 ± 0.085.
For the sequence “MASGILVNVKEEVTCPICLELLTQPLSLDCGHSFCQACLTANHKKSMLDKGESSCPVCRISYQPENIRPNRHVANIVEKLREVKLSPEGQKVDHCARHGEKLLLFCQEDGKVICWLCERSQEHRGHHTFLTEEVAREYQVKLQAALEMLRQKQQEAEELEADIREEKASWKTQIQYDKTNVLADFEQLRDILDWEESNELQNLEKEEEDILKSLTNSETEMVQQTQSLRELISDLEHRLQGSVMELLQGVDGVIKRTENVTLKKPETFPKNQRRVFRAPDLKGMLEVFRELTDVRRYWVDVTVAPNNISCAVISEDKRQVSSPKPQIIYGARGTRYGTRYQTFVNFNYCTGILGSQSITSGKHYWEVDVSKKTAWILGVCAGFQPDAMCNIEKNENYQPKYGYWVIGLEEGVKCSAFQDSSFHTPSVPFIVPLSVIICPDRVGVFLDYEACTVSFFNITNHGFLIYKFSHCSFSQPVFPYLNPRKCGVPMTLCSPSS [human TRIM5α, 4-codon duplication at 333]”, the enrichment was 0.34 ± 0.052.
“MASGILVNVKEEVTCPICLELLTQPLSLDCGHSFCQACLTANHKKSMLDKGESSCPVCRISYQPENIRPNRHVANIVEKLREVKLSPEGQKVDHCARHGEKLLLFCQEDGKVICWLCERSQEHRGHHTFLTEEVAREYQVKLQAALEMLRQKQQEAEELEADIREEKASWKTQIQYDKTNVLADFEQLRDILDWEESNELQNLEKEEEDILKSLTNSETEMVQQTQSLRELISDLEHRLQGSVMELLQGVDGVIKRTENVTLKKPETFPKNQRRVFRAPDLKGMLEVFRELTDVRRYWVDVTVAPNNISCAVISEDKRQVSSPKPQIIYGARGTRYIYGARGTRYQTFVNFNYCTGILGSQSITSGKHYWEVDVSKKTAWILGVCAGFQPDAMCNIEKNENYQPKYGYWVIGLEEGVKCSAFQDSSFHTPSVPFIVPLSVIICPDRVGVFLDYEACTVSFFNITNHGFLIYKFSHCSFSQPVFPYLNPRKCGVPMTLCSPSS [human TRIM5α, 9-codon duplication at 328]” yielded an enrichment of 0.51 ± 0.17.
“MASGILVNVKEEVTCPICLELLTQPLSLDCGHSFCQACLTANHKKSMLDKGESSCPVCRISYQPENIRPNRHVANIVEKLREVKLSPEGQKVDHCARHGEKLLLFCQEDGKVICWLCERSQEHRGHHTFLTEEVAREYQVKLQAALEMLRQKQQEAEELEADIREEKASWKTQIQYDKTNVLADFEQLRDILDWEESNELQNLEKEEEDILKSLTNSETEMVQQTQSLRELISDLEHRLQGSVMELLQGVDGVIKRTENVTLKKPETFPKNQRRVFRAPDLKGMLEVFRELTDVRRYWVDVTVAPNNISCAVISEDKRQVSSPKPQIIYGARGTRYNFNYCTGILGSQSITSGKHYWEVDVSKKTAWILGVCAGFQPDAMCNIEKNENYQPKYGYWVIGLEEGVKCSAFQDSSFHTPSVPFIVPLSVIICPDRVGVFLDYEACTVSFFNITNHGFLIYKFSHCSFSQPVFPYLNPRKCGVPMTLCSPSS [human TRIM5α, 4-codon deletion at 337]”: the enrichment was determined as 1.12 ± 0.58.
Take “MASGILVNVKEEVTCPICLELLTQPLSLDCGHSFCQACLTANHKKSMLDKGESSCPVCRISYQPENIRPNRHVANIVEKLREVKLSPEGQKVDHCARHGEKLLLFCQEDGKVICWLCERSQEHRGHHTFLTEEVAREYQVKLQAALEMLRQKQQEAEELEADIREEKASWKTQIQYDKTNVLADFEQLRDILDWEESNELQNLEKEEEDILKSLTNSETEMVQQTQSLRELISDLEHRLQGSVMELLQGVDGVIKRTENVTLKKPETFPKNQRRVFRAPDLKGMLEVFRELTDVRRYWVDVTVAPNNISCAVISEDKRQVSSPKPQIIYGARGTRYNYCTGILGSQSITSGKHYWEVDVSKKTAWILGVCAGFQPDAMCNIEKNENYQPKYGYWVIGLEEGVKCSAFQDSSFHTPSVPFIVPLSVIICPDRVGVFLDYEACTVSFFNITNHGFLIYKFSHCSFSQPVFPYLNPRKCGVPMTLCSPSS [human TRIM5α, 6-codon deletion at 337]”: the enrichment amounted to 0.462 ± 0.37.
On the same count and under the same terms, the same measure for “MASGILVNVKEEVTCPICLELLTQPLSLDCGHSFCQACLTANHKKSMLDKGESSCPVCRISYQPENIRPNRHVANIVEKLREVKLSPEGQKVDHCARHGEKLLLFCQEDGKVICWLCERSQEHRGHHTFLTEEVAREYQVKLQAALEMLRQKQQEAEELEADIREEKASWKTQIQYDKTNVLADFEQLRDILDWEESNELQNLEKEEEDILKSLTNSETEMVQQTQSLRELISDLEHRLQGSVMELLQGVDGVIKRTENVTLKKPETFPKNQRRVFRAPDLKGMLEVFRELTDVRRYWVDVTVAPNNISCAVISEDKRQVSSPKPQIIYGARGTRYQARGTRYQTFVNFNYCTGILGSQSITSGKHYWEVDVSKKTAWILGVCAGFQPDAMCNIEKNENYQPKYGYWVIGLEEGVKCSAFQDSSFHTPSVPFIVPLSVIICPDRVGVFLDYEACTVSFFNITNHGFLIYKFSHCSFSQPVFPYLNPRKCGVPMTLCSPSS [human TRIM5α, 7-codon duplication at 331]”: 0.856 ± 0.034.
